From PubChem BioAssay (NCI)
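Tested at 5 concentrations; 48 h exposure; 96-well plates; endpoints linearly interpolated, else capped at highest concentration. GI50: concentration for 50% inhibition of growth. At the TGI there is no net growth.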

System: NCI-H322M lung
Assay: NCI-60 cell line screen, 48 h

Point of comparison: COCC1N=C(c2ccc(OC)c(OCc3ccccc3)c2OC)O[C@H]1c1ccccc1 (stereo partly drawn), TGI 57.3 µM. Against it:
- COc1ccccc1/[N+]([O-])=C/c1ccccc1OC(=S)S — higher, > 100 µM
- OC12c3ccccc3C1CCCCCCCCCC21OCCCO1 (stereo not drawn) — higher, > 100 µM
- O=c1oc2ccccc2cc1-c1ccc([N+](=O)[O-])cc1 — higher, > 100 µM
- CCOC(=O)C12C3CCC1C2C(=O)C3 (stereo not drawn) — higher, > 100 µM
- O=C1c2cccnc2-c2nc(-c3ccccn3)cc3c2c1nc1ccccc13 — 29-fold lower, 1.95 µM
- CCCCCCC(O)C/C=C/CCCCCC/C(C(=O)OC)=C(/O)C(=O)OCC (stereo not drawn) — higher, > 100 µM
- Cc1ccc(C)c(-n2c(-c3ccc(Br)cc3)csc2=NC(=O)c2ccccc2F)c1 — higher, > 100 µM
- COc1cccc2c(Nc3ccc(C(=O)NCCNCCO)cc3)cc(-c3ccccc3)nc12 — higher, > 100 µM
- O=[N+]([O-])/C(C(Cl)=C(Cl)Cl)=C(\Nc1cccc2cccnc12)Sc1ccccc1 — higher, > 100 µM
- CCOC(=O)c1nc2cc(F)c(F)cc2nc1NCc1cc(OC)c(OC)c(OC)c1 — higher, > 100 µM
- CCOC(=O)NC(Nc1cccc(F)c1)(C(F)(F)F)C(F)(F)F — higher, > 100 µM
- COc1cccc(-c2nc(-c3ccc(NS(=O)(=O)c4ccccc4)cc3)[nH]c2-c2ccnc(Br)c2)c1 — higher, > 100 µM
- CC12CC(=O)OC(Cc3ccccc31)O2 (stereo not drawn) — higher, > 100 µM
- COc1ccc(-c2c(C#N)c(N)n(C3OCC(O)C(O)C3O)c(=S)c2C#N)cc1 (stereo not drawn) — higher, > 100 µM
- COc1ccc(/C=C\c2cc(OC)c(OC)c(OC)c2)cc1NC(=O)[C@@H](N)CO — higher, > 100 µM
- O=C(/C=C/c1ccsc1)c1cccs1 — higher, > 100 µM
- COc1cccc(/C=C\c2cc(OC)c(OC)c(OC)c2)c1 — higher, > 100 µM
- C=CC[P@@]1(=O)O[C@H](c2ccccc2)C(C)N1C(C)C (stereo partly drawn) — higher, > 100 µM
- Cc1c(C(=O)CCl)c(=O)n(-c2ccccc2)n1C — 2.6-fold lower, 21.9 µM
- CC(C)C(=O)CC(Sc1ccc(N)cc1)c1ccccc1 (stereo not drawn) — higher, > 100 µM
- COC(=O)C1=C(O)C(C(=O)OC)[C@]2(O)[C@H](C(=O)OC)[C@H]1C[C@@H](c1ccc(Cl)cc1Cl)[C@H]2C(=O)OC (stereo partly drawn) — 2-fold lower, 28.2 µM
- CCOC(=O)Nn1cnnc1Cc1ccccc1 — higher, > 100 µM
- O=S(=O)(O)c1cccc2ccc(O)c(N=Nc3ccc(S(=O)(=O)c4ccc(N=Nc5c(O)ccc6cccc(S(=O)(=O)O)c56)cc4)cc3)c12 — higher, > 100 µM
- COc1ccc(C[C@H]2NC[C@H](OC(C)=O)[C@H]2OC(C)=O)cc1 — 90-fold lower, 0.639 µM
- CN(C(=O)C12C3C4C1C1C2C3C41C(=O)O)C(C)(C)C (stereo not drawn) — higher, > 100 µM
- CC(SC(=S)N1CCCC1)C(=O)Nc1nnc(-c2ccc(Cl)cc2)o1 (stereo not drawn) — higher, > 100 µM
- O=NN(CCCl)C(=O)NCc1ccc[n+]([O-])c1 — higher, > 100 µM
- N/C(=N\Nc1cccc(Cl)c1)c1cccnc1 — higher, > 100 µM
- CCOC(=O)c1csc(NC(=O)CN2CCCCC2)n1 — higher, > 100 µM
- Cc1c2[nH]c3ccc(Br)cc3c2c(C)c2[nH]ccc(=O)c12 — 1.9-fold lower, 29.6 µM
- c1ccc2c(c1)Sc1ccccc1N2CCCN1c2ccccc2Sc2ccccc21 — higher, > 100 µM
- CC(C)/C(Cl)=N/OC(NC(=O)Nc1ccc(Cl)c(Cl)c1)(C(F)(F)F)C(F)(F)F — 1.8-fold lower, 31.9 µM
- O=C1NC(=O)C2=C1CCC2O (stereo not drawn) — higher, > 100 µM
- O=C(c1ccccc1)c1ccc2cccc(O)c2n1 — higher, > 100 µM
- COc1ccc(/C=C/C(=O)/C=C(/C=C/c2ccc(OC)c(OC)c2)OB(F)F)cc1OC — within 1.5-fold, 44.5 µM
- Cc1ccc2c(/C=C/C(=O)c3cc(CN4CCOCC4)c(O)c4nc(C)ccc34)cc(CN3CCOCC3)c(O)c2n1 — 6.2-fold lower, 9.25 µM
- O=S(=O)(O)c1cc(S(=O)(=O)O)c2c(N=Nc3ccccc3)c(O)ccc2c1 — higher, > 100 µM
- COc1c(O)cc2oc3cc(O)c(CC=C(C)C)c(O)c3c(=O)c2c1C/C=C(\C)CCC=C(C)C — 5.5-fold lower, 10.5 µM
- O=C(O)CSCC(=O)c1ccccc1 — higher, > 100 µM
- NCCCn1c2c(c3ccccc3c1=O)C(=O)c1cc3c(cc1-2)OCO3 — 12-fold lower, 4.83 µM
- c1ccc(Oc2c3ccccc3nc3ccccc23)cc1 — 5.3-fold lower, 10.8 µM

Point of comparison: c1ccc(Oc2c3ccccc3nc3ccccc23)cc1, GI50 3.08 µM. Against it:
- O=C1c2cccnc2-c2nc(-c3ccccn3)cc3c2c1nc1ccccc13 — 5.9-fold lower, 0.524 µM
- Cc1ccc(C)c(-n2c(-c3ccc(Br)cc3)csc2=NC(=O)c2ccccc2F)c1 — higher, > 100 µM
- COc1cccc2c(Nc3ccc(C(=O)NCCNCCO)cc3)cc(-c3ccccc3)nc12 — 11-fold higher, 33 µM
- COc1cccc(-c2nc(-c3ccc(NS(=O)(=O)c4ccccc4)cc3)[nH]c2-c2ccnc(Br)c2)c1 — within 1.5-fold, 3.22 µM
- COc1ccc(/C=C\c2cc(OC)c(OC)c(OC)c2)cc1NC(=O)[C@@H](N)CO — 91-fold lower, 0.0338 µM
- Cc1c(C(=O)CCl)c(=O)n(-c2ccccc2)n1C — 3-fold higher, 9.16 µM
- COc1ccc(/C=C/C(=O)/C=C(/C=C/c2ccc(OC)c(OC)c2)OB(F)F)cc1OC — within 1.5-fold, 2.84 µM
- Cc1ccc2c(/C=C/C(=O)c3cc(CN4CCOCC4)c(O)c4nc(C)ccc34)cc(CN3CCOCC3)c(O)c2n1 — 2.1-fold lower, 1.5 µM
- COc1c(O)cc2oc3cc(O)c(CC=C(C)C)c(O)c3c(=O)c2c1C/C=C(\C)CCC=C(C)C — 1.8-fold higher, 5.51 µM
- NCCCn1c2c(c3ccccc3c1=O)C(=O)c1cc3c(cc1-2)OCO3 — 2.6-fold lower, 1.17 µM
